Assay results from the supplement of paper PMC7826260.
Some of the results follow. Viral Rep nickase domains cut single-stranded DNA in vitro for 1 h at 37 °C with 3 µM enzyme; only the middle of the 90-letter strands is printed. The score is log2 (uncut reads / reads without enzyme); strong cutting gives strongly negative numbers. There is no active / inactive call. The scaling is to total reads, so uncut sequences can rise above 0 when many others are cut.

Legend:
Experiment in all cases: uncleaved DNA left, log2 of reads against the no-enzyme library (log2 ratio); higher = less cleavage (more negative = more Rep cleavage of the k-mer); sequences stand for … in CTCGTCCG…ACCGGAGA
[1] = system: T1, Rep nickase domain of Muscovy duck circovirus
T1 sequence (residues 1-111 of Rep, tag left off): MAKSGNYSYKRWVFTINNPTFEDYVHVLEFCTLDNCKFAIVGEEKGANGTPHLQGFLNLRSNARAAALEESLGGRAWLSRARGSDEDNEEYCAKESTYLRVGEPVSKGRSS
Description: (§1)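 A pool of 90-nt single-stranded DNAs with seven random bases just before the constant AC of the nick site (name = the seven bases) was cut by 3 µM recombinant His6-SUMO-tagged Rep nickase domain (300 nM DNA, 50 mM HEPES pH 8.0, 50 mM NaCl, 1 mM MnCl2, 1 h, 37 °C, three replicates). Uncut DNA was amplified and sequenced.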

[2] = system: T2, Rep nickase domain of banana bunchy top virus
T2 sequence (residues 1-94 of Rep, tag left off): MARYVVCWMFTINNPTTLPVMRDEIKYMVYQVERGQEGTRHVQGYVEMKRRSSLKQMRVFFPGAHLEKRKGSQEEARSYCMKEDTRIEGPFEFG
Description: as §1

[3] = system: T3, Rep nickase domain of cabbage leaf curl virus
T3 sequence (residues 1-116 of Rep, tag left off): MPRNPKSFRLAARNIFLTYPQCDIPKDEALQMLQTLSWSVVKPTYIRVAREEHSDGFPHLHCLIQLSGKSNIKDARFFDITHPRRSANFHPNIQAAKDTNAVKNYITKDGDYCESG
Description: as §1

[4] = system: T4, Rep nickase domain of chickpea chlorotic dwarf virus
T4 sequence (residues 1-124 of Rep, tag left off): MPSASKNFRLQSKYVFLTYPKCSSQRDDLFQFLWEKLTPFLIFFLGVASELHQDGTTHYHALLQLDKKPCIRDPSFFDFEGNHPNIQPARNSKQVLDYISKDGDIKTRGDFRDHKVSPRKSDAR
Description: as §1

[5] = system: T5, Rep nickase domain of faba bean necrotic yellows virus
T5 sequence (residues 1-98 of Rep, tag left off): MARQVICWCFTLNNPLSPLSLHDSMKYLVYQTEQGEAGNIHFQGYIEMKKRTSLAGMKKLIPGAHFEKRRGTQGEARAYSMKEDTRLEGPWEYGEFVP
Description: as §1

[6] = system: T6, Rep nickase domain of maize striate mosaic virus
T6 sequence (residues 1-117 of Rep, tag left off): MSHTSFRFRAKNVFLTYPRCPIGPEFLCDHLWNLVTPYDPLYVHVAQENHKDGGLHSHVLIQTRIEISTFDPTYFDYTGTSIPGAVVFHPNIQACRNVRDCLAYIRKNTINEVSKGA
Description: as §1

[7] = system: T7, Rep nickase domain of porcine circovirus 2
T7 sequence (residues 2-116 of Rep, tag left off): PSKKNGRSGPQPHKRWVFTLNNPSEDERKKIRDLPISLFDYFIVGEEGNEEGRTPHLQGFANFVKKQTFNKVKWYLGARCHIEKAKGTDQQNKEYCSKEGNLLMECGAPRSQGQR
Description: as §1

[8] = system: T8, Rep nickase domain of tomato yellow leaf curl virus
T8 sequence (residues 1-136 of Rep, tag left off): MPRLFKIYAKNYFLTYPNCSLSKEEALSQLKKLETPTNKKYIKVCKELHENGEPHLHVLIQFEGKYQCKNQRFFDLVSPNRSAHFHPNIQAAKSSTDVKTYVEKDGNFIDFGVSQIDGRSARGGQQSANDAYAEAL
Description: as §1

[9] = system: T9, Rep nickase domain of wheat dwarf virus
T9 sequence (residues 1-137 of Rep, tag left off): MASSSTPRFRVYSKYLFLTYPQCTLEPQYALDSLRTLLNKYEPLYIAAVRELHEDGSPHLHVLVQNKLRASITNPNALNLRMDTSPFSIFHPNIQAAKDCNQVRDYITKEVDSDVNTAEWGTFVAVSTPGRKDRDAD
Description: as §1

Sequence	uncleaved DNA left (log2) [1]	uncleaved DNA left (log2) [2]	uncleaved DNA left (log2) [3]	uncleaved DNA left (log2) [4]	uncleaved DNA left (log2) [5]	uncleaved DNA left (log2) [6]	uncleaved DNA left (log2) [7]	uncleaved DNA left (log2) [8]	uncleaved DNA left (log2) [9]
ACGGGTG	-0.211	-0.195	-0.629	-0.334	-0.253	-0.774	-0.0879	-0.0971	-0.169
CTACACT	-0.045	-0.0178	-1.14	-2.76	-0.0211	-1.05	-0.405	-0.179	-0.537
AGCCAGC	-0.0109	0.0757	-0.0348	-0.014	0.0601	-0.376	0.0528	0.0481	-0.0278
GCTGCGT	0.00467	-0.111	-0.778	-0.0223	0.0209	-0.747	0.143	0.0874	-0.168
TCGCCCA	-0.115	0.00234	0.192	-0.648	0.11	-0.342	-0.0881	0.0711	0.111
TGTGGTT	0.0575	-0.0251	0.245	-0.314	-0.0197	0.863	-0.168	-0.0175	-0.126
AGCCTTA	0.0651	-0.0429	0.25	0.122	-0.0838	0.487	-0.52	-0.00241	0.125
TAGCCTA	-0.158	-0.0783	-0.168	-2.39	0.0287	-0.251	-1.43	0.0391	0.0495
GTGTCAA	-0.011	0.12	0.294	1.02	0.0106	1.88	0.16	0.1	0.139
CGGGCTT	0.0569	0.0175	0.755	1.4	0.103	2.04	0.121	-0.000387	0.165
CCAAGAT	-0.144	-0.113	-0.0282	1.02	-0.0498	1.2	0.0711	-0.168	-0.145
AGGATAA	0.153	0.137	0.284	0.931	0.0899	1.07	0.198	0.159	0.125
GATGAAT	0.0691	0.146	0.278	0.676	0.043	1.46	0.0603	0.0602	0.199
TTGCCAA	-0.12	-0.102	-0.13	0.0303	-0.0607	-0.645	-0.471	0.0416	0.0493
GCATCGT	0.0168	0.0288	-0.41	-0.534	0.0141	-0.921	0.00233	0.0789	-0.0434
GCGCATG	-0.0219	-0.073	-0.0952	0.311	-0.0521	0.949	0.0672	-0.0892	-0.0873

Sequence	uncleaved DNA left (log2) [1]	uncleaved DNA left (log2) [2]	uncleaved DNA left (log2) [3]	uncleaved DNA left (log2) [4]	uncleaved DNA left (log2) [5]	uncleaved DNA left (log2) [6]	uncleaved DNA left (log2) [7]	uncleaved DNA left (log2) [8]	uncleaved DNA left (log2) [9]
GCGTCTG	0.0686	0.195	-0.00777	0.661	0.128	1.76	0.218	-0.0856	0.0271
AACGATG	0.00114	0.0136	0.0949	0.871	-0.0673	1.36	0.0503	-0.0538	-0.0329
ATTGACG	-0.0888	-0.104	-0.986	-0.0712	0.004	-1.06	0.0628	-0.0718	-0.184
ACGTCTG	0.0654	0.0192	-0.0307	0.273	0.0649	0.441	0.107	0.0751	-0.0599
TTGAAAC	0.0659	0.0451	0.168	-0.41	0.0984	-0.192	0.0393	0.0967	0.118
TGGATTG	0.0855	0.0501	0.0243	0.503	0.0772	0.467	0.168	0.00717	0.0612
CATAGAC	0.161	0.0115	0.192	0.244	0.0254	-0.759	0.207	-0.0496	0.0912
GCCAGGA	-0.0556	-0.0879	0.191	0.473	-0.00651	0.138	0.0146	-0.0499	0.0432
GTTAGCG	0.106	0.073	-0.685	0.408	0.0945	-0.691	0.127	0.0541	0.0307
GCGACAT	0.0172	0.0547	0.802	2	0.0263	2.23	0.146	0.102	0.181
TCCGCCC	-0.251	-0.116	0.0075	-0.389	-0.253	-0.354	-0.204	-0.253	-0.184
GTTCACG	-0.0257	0.0467	-0.477	-0.585	0.0332	-0.702	0.149	-0.069	0.0106
TTCGGAT	-0.0709	-0.136	0.183	1.29	-0.0933	1.65	-0.00415	-0.271	-0.129
TTAATGT	0.0452	-0.0729	0.222	-0.295	0.0483	-0.405	-0.0884	0.0394	0.000362
CGTTTGT	-0.0581	0.0232	-0.244	-0.415	0.0912	-0.623	-0.355	0.17	-0.0232
AATCGGG	-0.00698	-0.0123	-0.293	-0.083	0.00434	-0.837	0.123	0.06	0.00892
